According to paper PMC3179936:
Some values that stand alone complete this part of the results.

Biological target: recombinant leucyl aminopeptidase of T. cruzi (rLAPTc), N-terminal His-tag (Trypanosoma cruzi)
Assay: SEC-MALS; 20 μl rLAPTc at 170 μM (10 mg/ml), 25 mM Tris-HCl pH 7.5, 100 mM NaCl, KW 804 column, 20°C, with refractometry

## recombinant leucyl aminopeptidase of T. cruzi (rLAPTc), N-terminal His-tag (enzyme)
SEC peak at 8.5 ml elution
  stoichiometry N: 17.5 subunits
SEC peak at 11.2 ml elution
  stoichiometry N: 3 subunits
